Results taken from ChEMBL document CHEMBL4888484, “Replenishing the malaria drug discovery pipeline: Screening and hit evaluation of the MMV Hit Generation Library 1 (HGL1) against asexual blood stage Plasmodium falciparum ,using a nano luciferase reporter read-out” (2022).
Hit rate of the full screen: of about 150,000 compounds, about 540 (0.36%) showed an effect of 50% or more. The list shows a part of the results.

Tested on: Plasmodium falciparum
Assay: Primary screen in NF54 nanoGlo assay, in single point, at 2uM, 72h; a lower Z score goes with more inhibition
Assay type: functional, Erythrocyte
Conditions: timepoint 72 hour

Question: Which results are given for `O=C(c1ccc(F)cc1)N1CC2CCC2(Nc2ncc(Cl)cn2)C1` (centres undefined)?
Answer: % Inhibition: -8%; Z score: 1.08

Question: How did the “% Inhibition” value turn out when `Cc1nnc([C@H](C)OC(=O)C2=CCCCCC2)o1` was run?
Answer: -13%

Question: What about the Z score of the same compound?
Answer: 1.72

Question: Which “% Inhibition” value does the source give for `Cc1c(C(=O)N2CCC[C@H]3CN(C)C[C@H]32)nnn1C(C)C` here?
Answer: 2%

Question: And the Z score?
Answer: -0.32

Question: For `CN1CC2(CCN(S(=O)(=O)c3ccccc3)CC2)C[C@H]1C(=O)N1CCCC1`, which “% Inhibition” value is on record?
Answer: 1%

Question: What about the Z score of the same compound?
Answer: -0.23

Question: What does the source list for `O=C(c1ccoc1)N1CCC(F)(F)[C@@H](COCc2cccnc2)C1`?
Answer: % Inhibition: 0%; Z score: 0.09

Question: How did the “% Inhibition” value turn out when `CC(C)CCNC(=O)[C@H]1CC(=O)OC1(C)C` was run?
Answer: -18%

Question: What about the Z score of the same compound?
Answer: 2.37

Question: How did the “% Inhibition” value turn out when `C[C@@H]1CN(C[C@@H]2CN(C(=O)CCc3cccnc3)C[C@@H]2CO)C[C@H](C)O1` was run?
Answer: -1%

Question: What about the Z score of the same compound?
Answer: 0.13

Question: How did the “% Inhibition” value turn out when `O=C(NC[C@H]1COCCO1)c1ccnc(C2CC2)c1` was run?
Answer: -17%

Question: What about the Z score of the same compound?
Answer: 1.46

Question: What does the source list for `CNC(=O)c1cccc(NCc2ccc(-c3c(F)cccc3F)o2)c1C`?
Answer: % Inhibition: -10%; Z score: 1.01

Question: For `CC(C)CCn1cc(C(=O)N[C@@H](C)c2ccc(Cl)cn2)nn1`, which “% Inhibition” value is on record?
Answer: -22%

Question: And the Z score?
Answer: 3.31

Question: With `O=C(Cn1ccnc1)N(c1ccccc1)C1CCCCC1` as the compound, how does the “% Inhibition” value read?
Answer: -10%

Question: What about the Z score of the same compound?
Answer: 1.15

Question: What does the source list for `CCNC(=O)N1CCC(Oc2ncnc3c2CCOCC3)CC1`?
Answer: % Inhibition: -16%; Z score: 2.45

Question: For `CC(C)(C)OC(=O)NCC1CCCCC1O` (centres undefined), which “% Inhibition” value is on record?
Answer: -10%

Question: What about the Z score of the same compound?
Answer: 0.99

Question: For `O=c1[nH]c2ncc(Br)cc2n1C1CCCC1`, which “% Inhibition” value is on record?
Answer: -3%

Question: What about the Z score of the same compound?
Answer: 0.48

Question: Which results are given for `Cc1nc(Cc2noc(-c3ccc4c(c3)N=S=N4)n2)no1`?
Answer: % Inhibition: -5%; Z score: 0.68

Question: Which results are given for `Cc1ccc(C)c(NC(=O)c2ccc3c(c2)nnn3Cc2ccccc2C)c1`?
Answer: % Inhibition: -5%; Z score: 0.52

Question: What does the source list for `Clc1ccccc1NC1(c2nnnn2C2CCCCC2)CCCCC1`?
Answer: % Inhibition: -37%; Z score: 4.36

Question: For `CC(=O)Nc1ccc(-c2noc(C3CCCN(C(=O)C(NC(=O)c4ccco4)C(C)C)C3)n2)cc1` (centres undefined), which “% Inhibition” value is on record?
Answer: -4%

Question: What about the Z score of the same compound?
Answer: 0.5

Question: What does the source list for `CCCc1ccc(CNCC2(N(C)C)CCCCC2)o1`?
Answer: % Inhibition: -14%; Z score: 1.35

Question: Which results are given for `COc1ccc([C@H]2N(C(=O)CN3CCOCC3)CCCN2S(=O)(=O)c2ccc(C)cc2)cc1`?
Answer: % Inhibition: -15%; Z score: 2.38

Question: What does the source list for `CCOC(=O)C1(CC2CC2)CCN(Cc2ccc(F)cc2)CC1`?
Answer: % Inhibition: -3%; Z score: 0.56

Question: What does the source list for `Cc1ccc(C)c(N2CCN(c3c(C(=O)N4CCCC4)cnc4ccc(F)cc34)CC2)c1`?
Answer: % Inhibition: -12%; Z score: 1.52

Question: How did the “% Inhibition” value turn out when `C=CCNC(=O)N1CCc2nc(N3CCOCC3)nc(N3CCCCC3)c2C1` was run?
Answer: -12%

Question: And the Z score?
Answer: 1.62

Question: Which results are given for `CC(C)(C)OC(=O)N1CCC(CC(N)=O)CC1`?
Answer: % Inhibition: -8%; Z score: 1.43

Question: For `COc1cccc(-c2noc3nc(C)cc(C(=O)NCCCn4ccc(C)n4)c23)c1`, which “% Inhibition” value is on record?
Answer: 35%

Question: And the Z score?
Answer: -1.21

Question: What does the source list for `CC(C)n1ccc(Cn2c(=O)n(C)c3ccccc32)n1`?
Answer: % Inhibition: -2%; Z score: 0.2

Question: `C#CCCC(=O)N(C)CCOc1ccc(CC)cc1` was tested. Which “% Inhibition” value did it give?
Answer: -6%

Question: What about the Z score of the same compound?
Answer: 0.79

Question: `CNC(=O)CCN1CCN(CC(F)(F)F)c2ccccc21` was tested. Which “% Inhibition” value did it give?
Answer: -16%

Question: And the Z score?
Answer: 1.69

Question: What does the source list for `O=C(Nc1ccccn1)c1cn(-c2ccccn2)c(=O)c2ccccc12`?
Answer: % Inhibition: -10%; Z score: 1.1

Question: `Cc1cccc(C)c1NC(=O)CC(C)(C)C` was tested. Which “% Inhibition” value did it give?
Answer: -4%

Question: What about the Z score of the same compound?
Answer: 0.47

Question: With `CN(C)C(=O)NC[C@]1(O)CCCN(Cc2cnc3cc(O)ccc3c2)CC1` as the compound, how does the “% Inhibition” value read?
Answer: -9%

Question: What about the Z score of the same compound?
Answer: 1.22

Question: With `CCNC(=O)N(Cc1c(-c2ccccc2)nn(C)c1Oc1ccccc1)C[C@H]1CCCO1` as the compound, how does the “% Inhibition” value read?
Answer: -9%

Question: What about the Z score of the same compound?
Answer: 0.79

Question: For `CC[C@H](C)[C@H](NC(=O)Nc1cc(C(=O)OC)c(F)cc1F)C(=O)OC(C)(C)C`, which “% Inhibition” value is on record?
Answer: -4%

Question: What about the Z score of the same compound?
Answer: 0.31

Question: With `COc1cc(C(=O)O)cc(-c2cccc3ncccc23)n1` as the compound, how does the “% Inhibition” value read?
Answer: -7%

Question: What about the Z score of the same compound?
Answer: 1.07

Question: What does the source list for `COCCNCC(=O)NC1CCCCC1C(C)(C)C` (centres undefined)?
Answer: % Inhibition: -5%; Z score: 0.48

Question: How did the “% Inhibition” value turn out when `N#CCN1CCN(Cc2nc(-c3cccs3)no2)CC1` was run?
Answer: -4%

Question: What about the Z score of the same compound?
Answer: 0.74

Question: How did the “% Inhibition” value turn out when `Cc1nc2ccccc2nc1NC1CCN(CC(N)=O)CC1` was run?
Answer: 0%

Question: And the Z score?
Answer: -0.03

Question: Which results are given for `COC(=O)Nc1cccc(NC(=O)N[C@@H](C)[C@H]2COC(C)(C)O2)c1`?
Answer: % Inhibition: -8%; Z score: 1.72

Question: Which results are given for `c1ccc(COc2nc3c(s2)CCCC3)nc1`?
Answer: % Inhibition: 7%; Z score: -0.86

Question: `C1=CC2=NN=C(c3ccccc3)CN2C=C1` was tested. Which “% Inhibition” value did it give?
Answer: -2%

Question: What about the Z score of the same compound?
Answer: 0.21

Question: For `O=S(=O)(C1COC1)N(C1CC1)C1COC1`, which “% Inhibition” value is on record?
Answer: 2%

Question: And the Z score?
Answer: -0.3

Question: What does the source list for `Cc1cc(O[C@H]2CCN(C(=O)c3ccc(=O)n(C)n3)C2)nc(C)n1`?
Answer: % Inhibition: -1%; Z score: 0.16

Question: With `Cc1ccc(O)cc1C(=O)N1CCC2(CCCC2)C1` as the compound, how does the “% Inhibition” value read?
Answer: -8%

Question: What about the Z score of the same compound?
Answer: 1.09

Question: With `CC(C)CCOc1ccc([C@@H](CC(N)=O)CC(=O)O)cc1` as the compound, how does the “% Inhibition” value read?
Answer: -9%

Question: And the Z score?
Answer: 1.15

Question: For `OCCC1CCN(c2ncc(-c3ccccc3)s2)CC1`, which “% Inhibition” value is on record?
Answer: -17%

Question: And the Z score?
Answer: 2.69

Question: What does the source list for `CN1C(=O)CC[C@]2(C(=O)N3CCCC3)CCCC[C@@H]12`?
Answer: % Inhibition: -4%; Z score: 0.34

Question: `CC(C)c1ccc(-n2ncnc2CN2CCCCC2=O)cc1` was tested. Which “% Inhibition” value did it give?
Answer: 6%

Question: And the Z score?
Answer: -0.82

Question: What does the source list for `OCC#Cc1csc(CN2CC(c3ccccn3)C2)c1`?
Answer: % Inhibition: 7%; Z score: -0.95

Question: What does the source list for `CC(C)c1ccccc1O[C@@H](C)C(N)=O`?
Answer: % Inhibition: -5%; Z score: 0.71

Question: Which “% Inhibition” value does the source give for `Cc1c(C(=O)NCCCOC(C)C)cnn1C` here?
Answer: 1%

Question: What about the Z score of the same compound?
Answer: -0.1

Question: With `CC(C)C[C@@H](CNC(=O)c1ncoc1-c1ccccc1Cl)N1CCOCC1` as the compound, how does the “% Inhibition” value read?
Answer: -9%

Question: What about the Z score of the same compound?
Answer: 1.29

Question: What does the source list for `c1ccc2sc(-c3nccn3Cc3nnc4n3CCCCC4)cc2c1`?
Answer: % Inhibition: -9%; Z score: 1.66

Question: With `CS(=O)(=O)c1ccc2nc(NC(=O)c3ccccc3-c3ccccc3)sc2c1` as the compound, how does the “% Inhibition” value read?
Answer: 2%

Question: What about the Z score of the same compound?
Answer: -0.29

Question: `Cc1ccc(C(=O)NCCOCCn2cccn2)s1` was tested. Which “% Inhibition” value did it give?
Answer: -5%

Question: And the Z score?
Answer: 0.54

Question: For `Cc1ccsc1-c1nc(CN2CCC[C@@H]2C)c(C)o1`, which “% Inhibition” value is on record?
Answer: 3%

Question: And the Z score?
Answer: -0.38

Question: For `Cc1nnsc1C(=O)NCCn1ccn2nccc12`, which “% Inhibition” value is on record?
Answer: -12%

Question: What about the Z score of the same compound?
Answer: 1.54

Question: What does the source list for `CC1=NN(Cc2c(Cl)cccc2Cl)C(=O)C1C(=O)NC1CCS(=O)(=O)C1` (centres undefined)?
Answer: % Inhibition: 4%; Z score: -0.43
